Data: PubChem BioAssay AID1347071 (National Center for Advancing Translational Sciences (NCATS), 2019)
Hit rate of the full screen: of about 410,000 compounds, about 260 (0.063%) were called active. Inconclusive results, whose numbers are uncertain, are shown with a selection of clear calls. The call rests on the fitted dose curve; in most records, active means well fitted activation curve with a large enough effect; inconclusive means small, poorly fitted or top-dose-only effect; inactive means no such curve, though single readings can be large or run the other way. Potencies of inconclusive entries are left out as doubtful fits.

test: qHTS for compounds that reverse cellular toxicity of Amyloid beta (A-beta) peptide in yeast: Primary Screen; conditions: yeast expressing A-beta42, growth rescue, OD600, 48 h; growth rescue: at 46.1 µM (top of the series), 0% DMSO, 100% iron-clioquinol control; further: nearly all actives have a fitted effect of over 55% in size
Summary of the method: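 Yeast A-beta toxicity model in growth medium with pinned compounds, 48 h at 30 C; growth read as absorbance at 600 nm. Normalized to FeCl3/clioquinol equimolar mix (positive) and DMSO (negative).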
Potency means the concentration at half of the fitted maximal effect; tags describe the fitted curve by direction and shape.

Row | Structure (SMILES) | Potency | growth rescue
1 | Cc1cc(C(=O)OCC(=O)NCCc2ccccc2)c(C)o1 | inconclusive [activator, partial curve, poor fit] | –
2 | CCOC(=O)C1(Cc2cccc(OC)c2)CCN(Cc2ccon2)CC1 | inconclusive [activator, single point] | –
3 | NC1=NC(=O)/C(=C/c2cc(Br)c(O)c(Br)c2)S1 | inconclusive [activator, single point] | –
4 | Cc1ccc(NC(=S)N2CCCC2)cc1C | inconclusive [activator, single point] | –
5 | CC(C)NC(=O)NC(=O)COC(=O)c1ccc(OC(F)(F)F)cc1 | active: 10 µM | –
6 | COC(=O)NCCOc1cc(C)ccc1C | inconclusive [activator, partial curve, poor fit] | –
7 | COc1ccc(C(=O)NC(=S)NNC(=O)c2ccco2)cc1 | inconclusive [activator, full curve, poor fit] | –
8 | Cc1cc([N+](=O)[O-])cc2c1NCC1CC=CC21 (stereo not given) | inconclusive [activator, partial curve, poor fit] | –
9 | COCCNC(=S)NN=C1CCCCCC1 | inconclusive [activator, single point] | –
10 | C/C(=C/c1ccccc1)C(=O)N1CCN(c2ccccc2)CC1 | inconclusive [activator, single point] | –
11 | COc1ccc(Nc2ncnc3c2cnn3C)c(OC)c1 | inactive | –
12 | CC(O)(c1ccccc1)c1nc(-c2cc3ccccc3o2)cs1 (stereo not given) | inconclusive [activator, single point] | –
13 | CCCCN(CCCC)C(=O)c1cc2c(=O)n3ccccc3nc2s1 | inactive | –
14 | O=S(=O)(Nc1ccc(Cl)cc1)c1ccc2c(c1)CCO2 | inconclusive [activator, partial curve, poor fit] | –
15 | CC(=O)Nc1ccc(NC(=O)C2Cc3c(-c4cccc(C(C)=O)c4)ccnc3O2)cc1 (stereo not given) | inactive | –
16 | COc1cccc(-n2c(SCC(=O)Nc3sc4c(c3C(N)=O)CCC4)nc3ccccc3c2=O)c1 | inconclusive [activator, single point] | –
17 | O=C(O)CCC(=O)Nc1ccc(Br)cc1C(=O)c1ccc(Cl)cc1 | inconclusive [activator, partial curve, poor fit] | –
18 | CC1(C)SC2c3ccccc3C(=O)N2[C@@H]1C(=O)NC1CC1 (stereo not given in full) | inactive | –
19 | CC(C)CNc1ncnc2c1cnn2Cc1ccccc1Cl | inconclusive [activator, single point] | –
20 | O=[N+]([O-])c1cc(S(=O)(=O)N2CCCC2)ccc1O | inconclusive [activator, single point] | –
21 | O=C1CC(O)(C(F)F)Oc2ccc3ccccc3c21 (stereo not given) | inactive | –
22 | Cc1ccc(S(=O)(=O)C(C#N)c2nc3ccccc3nc2N2CC(C)OC(C)C2)cc1C (stereo not given) | inconclusive [activator, partial curve] | –
23 | Cc1c(Cl)cccc1NC(=O)Cn1c(-c2ccc(F)cc2)noc1=O | inconclusive [activator, single point] | –
24 | CCCCCCCC[n+]1cccc2c3ccccc3ccc21 | inactive | –

Row | Structure (SMILES) | Potency | growth rescue
25 | Cc1ccc(NC(=O)CSc2nncc3ccccc23)cc1 | inconclusive [activator, full curve] | –
26 | O=C(COc1ccccc1)NNC(=S)NC(=O)c1ccc(Cl)cc1Cl | inconclusive [activator, partial curve, poor fit] | –
27 | Cc1ccc(NC(=O)Nc2ccc3nc(N4CCN(C)CC4)cc(C)c3c2)cc1C | inactive | –
28 | c1cncc(-c2nnc(-c3cccnc3)nn2)c1 | inactive | –
29 | C#CCOCCOCCOCCNc1nc(N2CCN(C(=O)CCCCCCCCCCNC(=O)Cn3cc(C[C@@H](C)O)nn3)CC2)nc(N2CCN(C(=O)CCCCCCCCCCNC(=O)[C@H](CCCN=C(N)N)n3cc(C[C@@H](C)CC)nn3)CC2)n1 | inactive | –
30 | C/C(=N\NC(=S)NCc1ccccc1)c1ccc(Cl)s1 | inconclusive [activator, partial curve] | –
31 | CS(=O)(=O)c1ccccc1C(=O)Nc1ccc(S(=O)(=O)N2CCCC2)cc1 | inconclusive [activator, full curve, poor fit] | –
32 | COc1cccc(NC(=S)N2c3ccccc3CC2C)c1 (stereo not given) | inconclusive [activator, single point] | –
33 | COc1ccc(NC(=O)N(C)C[C@H]2Oc3c(NC(=O)c4nc5ccccc5s4)cccc3C(=O)N([C@@H](C)CO)C[C@H]2C)cc1 | inactive | –
34 | CC(=O)c1sc(Nc2ccccc2)nc1C | inactive | –
35 | COc1ccc2nc3sc(C(=O)N4CCN(c5ccccc5)CC4)cc3cc2c1 | inactive | –
36 | COC(=O)c1ccc(COc2ncnc3sccc23)cc1 | inactive | –
37 | CN(C(=O)CSc1ncnc2sc3c(c12)CCC3)C1CCS(=O)(=O)C1 (stereo not given) | inconclusive [activator, single point] | –
38 | O=C(NCc1ccc(C(F)(F)F)cc1)C1CC(c2ccc(C(F)(F)F)cc2)=NO1 (stereo not given) | inconclusive [activator, partial curve, poor fit] | –
39 | Cc1cc(C(=O)CSc2cccc[n+]2[O-])c(C)n1-c1ccc(OC(F)F)cc1 | inactive | –
40 | NC(=S)N=Nc1c(O)n(Cc2ccc(F)cc2)c2ccccc12 | inconclusive [activator, partial curve, poor fit] | –
41 | CCOc1ccc(Cc2n[nH]c(=S)n2Cc2ccccc2)cc1 | inconclusive [activator, single point] | –
42 | O=C1NC[C@H](c2ccccc2)OC(=O)[C@@H](Cc2ccc(F)cc2)CC/C=C/C[C@H]1CC(=O)N(CCO)Cc1ccccc1 | inactive | –
43 | COc1ccc(-c2cc(C(F)(F)F)nc(NCc3ccccc3)n2)cc1 | inactive | –
44 | COc1ccc(NC(=S)N/N=C/c2ccc(F)c(F)c2)cc1 | inconclusive [activator, partial curve] | –
45 | CNC(=S)Nc1cc2oc3ccccc3c2cc1OC | inconclusive [activator, partial curve, poor fit] | –
46 | CCc1nc2c(OCc3cc(Cl)cc(Cl)c3)cccn2c1N(C)C(=O)c1ccc(C)cc1 | inconclusive [activator, single point] | –
47 | FC(F)(F)c1nc(-c2cccs2)ncc1-c1nnnn1-c1ccc(Cl)cc1 | inactive | –
48 | CCSc1ccccc1C(=O)Nc1cccnc1 | inconclusive [activator, single point] | –

Row | Structure (SMILES) | Potency | growth rescue
49 | CCN(CC)C(=S)SCc1csc(CC(=O)Nc2ccccc2C)n1 | inconclusive [activator, single point] | –
50 | OC(c1ccc(Cl)c(Cl)c1)c1ncc(-c2ccccc2Cl)[nH]1 (stereo not given) | inconclusive [activator, single point] | –
51 | S=c1[nH]nc(-c2ccc(Br)cc2)n1Cc1ccccc1 | inconclusive [activator, single point] | –
52 | O=C(C1COc2ccccc2O1)N1CCN(c2ccc(C(F)(F)F)cn2)CC1 (stereo not given) | inconclusive [activator, single point] | –
53 | O=C(CCc1ccccc1)NNc1ccc(F)cc1 | inconclusive [activator, single point] | –
54 | COc1cc(C(O)c2nc(-c3cc4ccccc4o3)cs2)ccc1F (stereo not given) | inconclusive [activator, partial curve, poor fit] | –
55 | CCCCNC(=O)CCNS(=O)(=O)c1ccc(C)cc1 | – | inconclusive: -88% [activator]
56 | CCCCCC(=O)NC(=S)Nc1cccc(C(C)=O)c1 | active: 8.91 µM | –
57 | C/C(=N\NC(=S)Nc1ccc(C)cc1)c1cc2ccccc2o1 | inconclusive [activator, full curve, poor fit] | –
58 | CCc1c(C)nc2c(OC)cccc2c1Cl | inconclusive [activator, partial curve] | –
59 | CC(C)C[C@H]1CNC(=S)N1C[C@H]1CCCN1C[C@H](CC(C)C)N1C[C@H](CC(C)C)N(CCc2ccccc2)C1=S | inconclusive [activator, single point] | –
60 | CCn1nc(NC(=O)c2ccncc2)c2cc3ccccc3nc21 | inconclusive [activator, single point] | –
61 | CCc1cccc2c(C(=S)N3CCCC3)c[nH]c12 | inconclusive [activator, single point] | –
62 | CC(C)N=C1CCCC1C(=S)SSC(=S)C1CCCC1=NC(C)C (stereo not given) | inconclusive [activator, partial curve, poor fit] | –
63 | CCC(c1nnnn1CCc1ccccc1)N1CCN(c2ccc(OC)cc2)CC1 (stereo not given) | inconclusive [activator, single point] | –
64 | CCn1cc(CNC(=O)c2cc(-c3cc(OC)ccc3OC)nc3ccccc23)c(C)n1 | inconclusive [activator, partial curve, poor fit] | –
65 | COc1ccc(N(CC(=O)Nc2cccc(N(C)S(C)(=O)=O)c2)S(=O)(=O)c2ccc(F)cc2)cc1 | inactive | –
66 | CCOc1nc(NC2CCCC2)nc(N2CCC(C)CC2)n1 | inconclusive [activator, partial curve, poor fit] | –
67 | CCCCCn1nc(C(=O)N(CC)c2c(N)n(CCCC)c(=O)[nH]c2=O)c2ccccc2c1=O | inactive | –
68 | N#C/C(=C\c1ccccc1O)C(=O)Nc1ccccn1 | inactive | –
69 | COC(=O)c1cn(CC(=O)NCc2ccco2)c2ccccc12 | inactive | –
70 | COc1ccc(-n2nnnc2C2CCN(S(=O)(=O)c3cccc(Cl)c3C)CC2)cc1 | inactive | –
